According to PubChem BioAssay AID1745853 (National Center for Advancing Translational Sciences (NCATS), 2022):
The other results are listed elsewhere or left out. These are further read-outs of the screen, such as a control signal, another cell line or another target. No call is given for them.

Legend:
Assay in all cases: Primary Screen for Target Class Profiling of Small Molecule Inhibitors of Methyltransferases
[1] = biological target: Glycine N-methyltransferase (Homo sapiens) (UniProt Q14749); conditions: purified enzyme, MTase-Glo SAH luminescence; measured here: GNMT inhibition; at 40 µM; stronger effect = lower value
Outline: (§1)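 Each enzyme was assayed with SAM and its substrate. SAH formation detected by MTase-Glo luminescence; single-point 40 uM screen[…].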

[2] = biological target: Guanidinoacetate N-methyltransferase (Homo sapiens) (UniProt Q14353); conditions: purified enzyme, MTase-Glo SAH luminescence; measured here: GAMT inhibition; at 40 µM; stronger effect = lower value
Outline: as §1

[3] = biological target: Histamine N-methyltransferase (Homo sapiens) (UniProt P50135); conditions: purified enzyme, MTase-Glo SAH luminescence; measured here: HNMT inhibition; at 40 µM; stronger effect = lower value
Outline: as §1

[4] = biological target: Nicotinamide N-methyltransferase (Homo sapiens) (UniProt P40261); conditions: purified enzyme, MTase-Glo SAH luminescence; measured here: NNMT inhibition; at 40 µM; stronger effect = lower value
Outline: as §1

[5] = biological target: Phenylethanolamine N-methyltransferase (Homo sapiens) (UniProt P11086); conditions: purified enzyme, MTase-Glo SAH luminescence; measured here: PNMT inhibition; at 40 µM; stronger effect = lower value
Outline: as §1
On the % scale 0 is the no-effect control and ±100 the full control effect.

Row | Structure (SMILES) | activity change, negative = inhibition [1] [%] | activity change, negative = inhibition [2] [%] | activity change, negative = inhibition [3] [%] | activity change, negative = inhibition [4] [%] | activity change, negative = inhibition [5] [%]
1 | CC(C)NC(=O)N1Cc2ccccc2-n2cccc2C1c1cc(F)cc(F)c1 (configuration not stated) | 7.59 | 4.83 | 4.14 | -3.02 | 3.89
2 | COc1cccc(CNC(=O)N2Cc3ccccc3-n3cccc3C2c2ccc(F)cc2)c1 (configuration not stated) | -5.2 | 0 | 2.22 | -2.69 | 4.08
3 | CCOc1ccc(C2c3cccn3-c3ccccc3CN2C(=O)Nc2ccccc2CC)cc1 (configuration not stated) | 0.304 | 0 | 11.9 | 8.67 | 7.8
4 | CCOc1ccc(C2c3cccn3-c3ccccc3CN2C(=O)NCc2ccc(C)cc2)cc1 (configuration not stated) | 2.23 | 0 | 8.41 | 9.59 | 11.4
5 | Cc1ccc(C2c3cccn3-c3ccccc3CN2C(=O)NCc2ccccc2)cc1 (configuration not stated) | 1.26 | 2.91 | 0.788 | -3.82 | -1.56
6 | O=C(O)c1cn(Cc2ccc(F)cc2Cl)nn1 | -1.36 | -0.838 | 1.13 | 0.502 | -2.39
7 | CCC1c2cccn2-c2ccccc2CN1C(=O)Nc1ccc(C)c(C)c1 (configuration not stated) | 0.815 | 0.492 | 5.24 | 2.78 | 7.74
8 | O=C(Nc1ccc(F)cc1)N1Cc2ccccc2-n2cccc2C1c1cccc(Cl)c1 (configuration not stated) | 9.94 | 1.63 | 3.75 | 3.16 | 7.84
9 | CCOC(=O)c1ccccc1NC(=O)N1Cc2ccccc2-n2cccc2C1c1ccccc1C (configuration not stated) | 15.8 | 0 | 8.86 | 1.18 | 8.65
10 | Oc1ccc2c(c1)C13CCCC[C@H]1[C@@H](C2)N(CC1CCC1)CC3 | -4.91 | 5.28 | -50.5 | -24.2 | -10.6
11 | Cc1ccc(CNC(=O)N2Cc3ccccc3-n3cccc3C2c2cccs2)cc1 (configuration not stated) | 9.35 | 1.76 | -1.22 | -8.93 | -1.24
12 | Cc1cc(SCc2sc(-c3ccc(C(F)(F)F)c(F)c3)nc2C)ccc1OCC(=O)O | -24.5 | 11.4 | 6.51 | -26.5 | 8.77
13 | CC(C)C1c2cccn2-c2ccccc2CN1C(=O)Nc1ccc(Br)cc1F (configuration not stated) | 3.4 | 0.423 | -0.944 | 5.1 | 5.45
14 | Cc1cccc(C2c3cccn3-c3ccccc3CN2C(=O)Nc2ccc(Br)c(C)c2)c1 (configuration not stated) | 10.8 | 0.451 | 12.2 | 11.8 | 8.8
15 | Cc1ccc(C2c3cccn3-c3ccccc3CN2C(=O)Nc2ccccc2Br)cc1 (configuration not stated) | 4.31 | -1.46 | -0.169 | -4.17 | -2.27
16 | Cc1sc2c(c1C)C(c1ccc(Cl)cc1)=NC(CC(=O)OC(C)(C)C)c1nnc(C)n1-2 (configuration not stated) | -1.35 |  | 6 |  | 
17 | CCOC(=O)Cc1ccc(NC(=O)N2Cc3ccccc3-n3cccc3C2c2cccs2)cc1 (configuration not stated) | 7.82 | 0 | -1.86 | 1.69 | 6.77
18 | CCOc1ccc(C2c3cccn3-c3ccccc3CN2C(=O)Nc2ccccc2OC)cc1 (configuration not stated) | -1.57 | 2.19 | -2.58 | -6.57 | -3.56
19 | CC(=O)NBr | 0.189 | 7.07 | 2.41 | -6.97 | -1.53
20 | CC(C)(O)[C@@H]1C2OC(=O)[C@@H]1[C@]1(O)C[C@H]3O[C@]34C(=O)O[C@H]2[C@]14C (tested in a mixture with another compound) | 5.47 | 10.8 | 1.83 | -4.14 | 7.33

Row | Structure (SMILES) | activity change, negative = inhibition [1] [%] | activity change, negative = inhibition [2] [%] | activity change, negative = inhibition [3] [%] | activity change, negative = inhibition [4] [%] | activity change, negative = inhibition [5] [%]
21 | CCc1ccc(C2c3cccn3-c3ccccc3CN2C(=O)Nc2ccccc2)cc1 (configuration not stated) | 8.46 | 3.3 | 1.75 | -1.57 | 2.09
22 | CCc1ccc(C2c3cccn3-c3ccccc3CN2C(=O)Nc2ccccc2C(F)(F)F)cc1 (configuration not stated) | 7.25 | 0 | -4.45 | 0.132 | 5.47
23 | Cc1cc(C)cc(NC(=O)N2Cc3ccccc3-n3cccc3C2c2cccs2)c1 (configuration not stated) | 2.5 | 0 | -0.674 | -0.773 | 3.98
24 | CCOC(=O)CNC(=O)N1Cc2ccccc2-n2cccc2C1c1cc(F)cc(F)c1 (configuration not stated) | -0.408 | 4.8 | -1.77 | -12.6 | -0.4
25 | Cc1c2ccncc2c(C)c2c1[nH]c1ccccc12 | -71.1 | -52.9 | -66.5 | -62.5 | -69
26 | CC(C)C1c2cccn2-c2ccccc2CN1C(=O)Nc1ccc(F)c(Cl)c1 (configuration not stated) | 0.881 | 0 | 4.17 | 4.75 | 4.41
27 | COc1cc(OC)c(NC(=O)N2Cc3ccccc3-n3cccc3C2c2ccc(F)cc2)cc1Cl (configuration not stated) | -8.15 | 0.818 | -1.86 | 0.396 | 4.25
28 | Cc1cccc(C2c3cccn3-c3ccccc3CN2C(=O)NCc2ccccc2)c1 (configuration not stated) | 5.87 | 0 | 5.84 | 2.41 | 2.31
29 | Cc1ccc(C2c3cccn3-c3ccccc3CN2C(=O)Nc2ccc(C)cc2C)cc1 (configuration not stated) | 1.05 | 1.15 | -1.76 | -4.13 | -3.06
30 | CC(C)NP(=O)(NC(C)C)OP(=O)(NC(C)C)NC(C)C | -1.11 | 1.54 | 0.626 | -6.31 | 1.58
31 | CCOc1ccc(C2c3cccn3-c3ccccc3CN2C(=O)Nc2cccc(OC)c2)cc1 (configuration not stated) | -0.959 | 0.759 | -0.129 | -9.43 | -0.33
32 | CN(C(=O)CN1C(=O)COc2cc(Cl)c(Cl)cc21)[C@@H](CN1CCCC1)c1ccc(-c2cccc(C(N)=O)c2)cc1 | -26.3 | -1.21 | -26.6 | -32 | -36.7
33 | O=C(Nc1ccc2n(c1=O)C[C@H]1C[C@@H]2CN(C(=O)NC2CCCCC2)C1)c1ccco1 | -9.41 | -6 | -6.11 | -13.7 | -1.75
34 | CO[C@H]1[C@H](O)[C@H](O[C@H]2CC[C@]3(C=O)C4CC[C@]5(C)[C@H](C6=CC(=O)OC6)CC[C@]5(O)C4CC[C@@H]3C2)O[C@@H](C)[C@@H]1O (some centres not stated) | -9.4 | -9.52 | 1.46 | -17.4 | -4.56
35 | COc1ccc(C2c3cccn3-c3ccccc3CN2C(=O)Nc2cc(OC)cc(OC)c2)cc1 (configuration not stated) | 6 | 0 | -0.277 | -0.051 | 3.66
36 | Cn1ncnc1COc1nn2c(-c3c(F)cccc3F)nnc2cc1C1CCC1 | -0.751 | 4.07 | 5.91 | -17.3 | 0.922
37 | CC(=O)N1N=C(c2ccc(N)cc2)c2cc3c(cc2C[C@H]1C)OCO3 | 1.62 | -2.92 | 0.529 | -19 | -4.89
38 | CN1CC[C@@]2(C)c3cc(OC(=O)Nc4ccccc4)ccc3N(C)[C@@H]12 | -15.9 | 6.02 | -9.35 | -10.4 | -0.918
39 | N#CCCN | -4.81 | 6.96 | -1.14 | -2.56 | 8.04
40 | O=C(Nc1cccc2c1CCCC2)N1Cc2ccccc2-n2cccc2C1c1cccs1 (configuration not stated) | 1.31 | 4.14 | -3.92 | -5.35 | 1.8

Row | Structure (SMILES) | activity change, negative = inhibition [1] [%] | activity change, negative = inhibition [2] [%] | activity change, negative = inhibition [3] [%] | activity change, negative = inhibition [4] [%] | activity change, negative = inhibition [5] [%]
41 | C[C@@H](CN1CCC2(CC1)C(=O)NCN2c1cccc(F)c1)NC(=O)c1ccc(Br)cc1 | -6.38 | 11.4 | -3.26 | -15.8 | -2.24
42 | C[C@H]1CCC[C@H](O)CCC/C=C/c2cc(O)cc(O)c2C(=O)O1 | -94.3 | -95.9 | -93.7 | -97.6 | -98.1
43 | C[C@H]1CN(CC[C@H](O)C2CCCCC2)CC[C@@]1(C)c1cccc(O)c1 | -5.03 | -1.51 | -46.3 | -12 | -7.3
44 | CCc1ccc(NC(=O)N2Cc3ccccc3-n3cccc3C2c2ccc(OC)cc2)cc1 (configuration not stated) | 8.15 | 7.87 | 1.82 | -0.259 | 1.83
45 | CC(C)NC(=O)N1Cc2ccccc2-n2cccc2C1c1ccc(Cl)cc1 (configuration not stated) | -6.5 | 3.35 | -1.43 | -15.2 | 6.58
46 | CCC1c2cccn2-c2ccccc2CN1C(=O)Nc1ccc(Br)c(C)c1 (configuration not stated) | -0.155 | 1.15 | 0.28 | -4.34 | 0.245
47 | O=C(Nc1nccs1)[C@H]1CN2CC[C@H]1C[C@@H]2Cn1cc(C2(O)CCCCC2)nn1 | -2.15 | -2.44 | -1.18 | -3.99 | -2.57
48 | COCCCNC(=O)N1Cc2ccccc2-n2cccc2C1c1ccc(Cl)cc1 (configuration not stated) | -2.57 | 4.09 | 0.403 | -10.3 | 1.57
49 | COc1ccc(C2c3cccn3-c3ccccc3CN2C(=O)NC(C)C)cc1OC (configuration not stated) | 7.05 | 0 | -3.77 | 2.16 | 5.48
50 | NC(=O)CN1CCCC1=O | -5.64 | 1.86 | -0.763 | -2.72 | 6.42
51 | CN[C@H]1[C@H](O)[C@H](O[C@@H]2[C@@H](O)[C@H](O[C@H]3O[C@H]([C@H](C)O)[C@@H](O)[C@H](O)[C@H]3N)[C@@H](N)C[C@H]2N)OC[C@@]1(C)O | 3.71 | 3.27 | 6.09 | -7.48 | 1.66
52 | C=C(C)[C@H]1O[C@H]2CC[C@@]3(C)[C@@](O)(CC[C@H]4[C@@H]5OC(C)(C)[C@H]6C[C@@H]7C(=C)Cc8c(Cl)cc9[nH]c(c5c9c8[C@@]76O)[C@@]43C)[C@]23O[C@@H]3[C@H]1O | 5.57 | 10.8 | 8.42 | -2.01 | 3.23
53 | CCOc1ccc(C2c3cccn3-c3ccccc3CN2C(=O)Nc2ccccc2)cc1 (configuration not stated) | -4.82 | -0.719 | -4.85 | -6.45 | -2.23
54 | Cc1ccc(NC(=O)N2Cc3ccccc3-n3cccc3C2C)c(C)c1 (configuration not stated) | 6.93 | 0 | 2.77 | 0.421 | 4.68
55 | COc1cccc(CN2CCCCCCNC(=O)[C@@H]3CCC[C@@H]32)n1 | -6.78 | -3.02 | -12.5 | -6.85 | -1.68
56 | CCC1NC(=O)C2C(Cl)C(Cl)CN2C(=O)C(C(C)O)NC(=O)CC(c2ccccc2)NC(=O)C(CO)NC1=O (configuration not stated) | 5.59 | 3.45 | 11.3 | -8.76 | 4.61
57 | Cc1ccc(NC(=O)N2Cc3ccccc3-n3cccc3C2C)cc1C (configuration not stated) | 7.69 | 1.01 | 10.8 | 5.61 | 7.51
58 | CCC1c2cccn2-c2ccccc2CN1C(=O)Nc1ccccc1C(F)(F)F (configuration not stated) | -9.63 | 1.11 | -4.44 | -6.88 | -1.2
59 | CCCNC(=O)N1Cc2ccccc2-n2cccc2C1c1ccc(CC)cc1 (configuration not stated) | 9.27 | 3.84 | 4.88 | -6.68 | 4.68
60 | COc1ccc(C2c3cccn3-c3ccccc3CN2C(=O)CCC(=O)NC2CCCCC2)cc1 (configuration not stated) | -5.71 | 4.51 | -2.27 | -3.77 | -2.94
